The results in this text go back to the supplement of paper PMC4723716.

± gives the uncertainty stated by the source. In all, about 9,900 compounds were measured (“viability index relative to DMSO control”: median about 1, lowest 2% from about 0.85 on). The list shows a part of the results.

For the assay, the system named is Plasmodium falciparum NF54 stage V gametocytes. In words: viability index relative to DMSO control (fraction); higher = less gametocyte killing. The following applies: 2.5 µM, library set: Broad Institute DOS, incubation time: 72 h. The procedure, abridged:
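P. falciparum NF54 stage V gametocytes in serum-free screening medium (0.75% gametocytemia, 1.25% hematocrit, 10 µl) were incubated with compound at 2.5 µM in 1,536-well plates for 72 hr at 37°C under low oxygen. Then 3 µl of 2.5 µM MitoTracker Red CMXRos plus 0.13% saponin was added for one to two hours. One field per well was imaged, 20–70 µm2 red particles were counted, and the viability index was the count divided by the plate mean of DMSO wells.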
Molecule `CO[C@H]1CN(C)C(=O)c2cc(NC(=O)c3ccc4c(c3)OCO4)ccc2OC[C@H](C)N(CCC(F)(F)F)C[C@@H]1C` displayed a viability index of 1.16 ± 0.044.

The molecule `C[C@@H]1CN([C@H](C)CO)C(=O)CCCn2nncc2CO[C@@H]1CN(C)S(=O)(=O)c1ccc(Oc2ccccc2)nc1` showed a viability index of 1.05 ± 0.026.

As for `CC(C)(C)[S@@](=O)N1Cc2cc(C(=O)N3CCOCC3)nc(-c3cccc(-c4ccccc4F)c3)c2[C@H]1CCO`, the viability index is 1.08 ± 0.034.

Regarding `CN(C)C(=O)C[C@@H]1CC[C@H]2[C@H](COc3ccc(NC(=O)C4CCCCC4)cc3C(=O)N2C)O1`, the viability index was 1.07 ± 0.072.

The molecule `O=C(NCC[C@@H]1CC[C@H](NC(=O)C2CCOCC2)[C@@H](CO)O1)c1cc(Cl)cc(Cl)c1` displayed a viability index of 0.979 ± 0.036.

In the case of `Cc1ccc(S(=O)(=O)N(C)C[C@H]2Oc3cc(C#CC4CCCC4)ccc3S(=O)(=O)N([C@H](C)CO)C[C@@H]2C)cc1`, the viability index was 0.676 ± 0.26.

Molecule `C[C@@H]1CN([C@H](C)CO)C(=O)Cc2cc(NC(=O)Nc3ccc(F)cc3)ccc2O[C@H]1CN(C)S(C)(=O)=O` had a viability index of 0.939 ± 0.16.

Turning to `COc1ccc2c3c([nH]c2c1)[C@@H](CO)N(CC1CC1)C[C@]31CN(Cc2cc(F)ccc2F)C1`, the viability index came to 0.983 ± 0.058.

Regarding `CCC(=O)N1Cc2cc(C(=O)NCc3cccc(F)c3)nc(-c3cccc(C4=CCCC4)c3)c2[C@H]1CCO`, the viability index was determined as 1.06 ± 0.016.

`C[C@@H]1CN([C@@H](C)CO)C(=O)c2cc(C#Cc3ccccc3)cnc2O[C@H]1CN(C)C(=O)c1ccccc1` gave a viability index of 1 ± 0.091.

In turn, `CCCNC(=O)C[C@@H]1CC[C@H]2[C@@H](COC[C@@H](O)CN2C(=O)Nc2ccc(Cl)c(Cl)c2)O1` showed a viability index of 1.02 ± 0.0087.

With `CC(C)[C@H]1COCc2cn(nn2)CCC[C@H](C)C(=O)N1`, the viability index was 0.99 ± 0.068.

Turning to `COc1cccc(C#Cc2ccc3c(c2)O[C@H](CN(C)C(=O)CN2CCOCC2)[C@H](C)CN([C@H](C)CO)S3(=O)=O)c1`, the viability index stood at 0.972 ± 0.057.

`COCC(=O)N1CC[C@@H]2[C@H]1c1cc(-c3cccc(F)c3)ccc1N(C)[C@@H]2CO` registered a viability index of 1.086 ± 0.0022.

In turn, `C[C@@H]1CCCCO[C@H](CN(C)Cc2ccc(Cl)c(Cl)c2)[C@@H](C)CN([C@H](C)CO)C(=O)c2cc(NC(=O)CCCCCC(=O)Nc3ccccc3N)ccc2O1` yielded a viability index of 0.858 ± 0.14.

The molecule `C[C@H](NC(=O)C[C@@H]1CC[C@@H]2[C@H](COC[C@@H](O)CN2C(=O)Nc2cccc(Cl)c2)O1)c1ccccc1` yielded a viability index of 1.06 ± 0.072.

For `C[C@@H]1CN([C@H](C)CO)C(=O)c2cc(N(C)C)ccc2O[C@@H](C)CCCCO[C@H]1CN(C)S(=O)(=O)c1cn(C)cn1`, the viability index is 0.994 ± 0.026.

`Cc1noc(C)c1S(=O)(=O)Nc1ccc2c(c1)C(=O)N([C@H](C)CO)C[C@@H](C)[C@H](CN(C)C(=O)Nc1cccc3ccccc13)OCCCC[C@@H](C)O2` displayed a viability index of 1.01 ± 0.079.

In turn, `CCS(=O)(=O)N[C@H]1C=C[C@@H](CC(=O)O)O[C@@H]1CO` came in with a viability index of 0.95175 ± 0.00016.

On to `C/C=C/c1ccc([C@@H]2[C@@H](CO)N3CCCCN(S(=O)(=O)c4ccc(OC)cc4)C[C@@H]23)cc1`, for which the viability index amounted to 0.993 ± 0.055.

`CN(C)CC(=O)N1[C@H](CO)[C@H](c2ccccc2-c2ccc(C(=O)N(C)C)cc2)[C@@H]1C#N`: the viability index worked out at 1.1 ± 0.033.

For `COCC(=O)N1CC2(C1)[C@H](c1ccccc1)[C@@H](CO)N2CCC(F)(F)F`, the viability index stood at 1.08 ± 0.069.

For `O=C(C[C@@H]1C=C[C@H](NC(=O)c2ccncc2)[C@@H](CO)O1)NCC1CC1`, the viability index turned out to be 1.07 ± 0.07.

`O=S(=O)(c1ccc(F)cc1)N1CCCCN2[C@H](CO)[C@@H](c3ccc(-c4cncnc4)cc3)[C@@H]2C1` displayed a viability index of 0.988 ± 0.048.

Take `COC(=O)C[C@H]1CC[C@H]2[C@@H](COC[C@H](O)CN2S(=O)(=O)c2cn(C)cn2)O1`: the viability index turned out to be 1.04 ± 0.021.

Molecule `CN1C(=O)c2cc(NC(=O)c3cccc(C(F)(F)F)c3)ccc2OC[C@@H]2O[C@H](CC(=O)NCCN3CCCC3)CC[C@H]21` came in with a viability index of 0.967 ± 0.15.

As to `CCS(=O)(=O)N1C[C@@]2(C1)CN([C@@H](CO)c1[nH]c3cc(OC)ccc3c21)C(=O)c1ccc(F)cc1`, the viability index was determined as 0.965 ± 0.1.

`Cc1noc(C)c1NC(=O)N1C[C@@H](O)COC[C@@H]2O[C@H](CC(=O)N[C@H]3CCN(Cc4ccccc4)C3)CC[C@H]21` yielded a viability index of 0.998 ± 0.064.

Consider `Cc1ccccc1S(=O)(=O)N1C[C@H](O)COC[C@@H]2O[C@H](CC(=O)N3CCCCC3)CC[C@H]21`, for which the viability index amounted to 0.945 ± 0.078.

`COc1cccc(-c2ccc([C@@H]3[C@H]4CNC[C@@H]3N4Cc3nccs3)cc2)c1` gave a viability index of 0.983 ± 0.079.

`CO[C@@H]1CN(C)C(=O)c2ccc(NC(=O)c3ccccc3F)cc2OC[C@H](C)N(C)C[C@H]1C` showed a viability index of 1.1 ± 0.15.

Regarding `COc1ccc(S(=O)(=O)Nc2ccc3c(c2)OC[C@@H](C)N(Cc2cc(F)ccc2F)C[C@@H](C)[C@H](OC)CN(C)C3=O)cc1`, the viability index came to 1.058 ± 0.0098.

As for `C[C@H](CO)N1C[C@H](C)[C@H](CN(C)C(=O)NC2CCCCC2)Oc2ccc(N(C)C)cc2CC1=O`, the viability index is 1.13 ± 0.1.

For `C[C@@H]1CN([C@@H](C)CO)C(=O)CCCn2cc(nn2)CO[C@H]1CN(C)Cc1ccccc1`, the viability index amounted to 1.11 ± 0.093.

In turn, `C[C@@H]1CN([C@H](C)CO)C(=O)c2cccc(NS(C)(=O)=O)c2O[C@H]1CN(C)Cc1ccc(-c2ccccc2)cc1` gave a viability index of 0.916 ± 0.13.

The molecule `CN1c2ccc(Br)cc2[C@@H]2[C@@H](CCN2S(=O)(=O)c2ccccc2F)[C@H]1CO` yielded a viability index of 1.04 ± 0.1.

Turning to `CO[C@@H]1CN(C)C(=O)c2ccc(NC(=O)Nc3cc(F)ccc3F)cc2OC[C@@H](C)N(C(=O)c2ccccn2)C[C@@H]1C`, the viability index was 1.08 ± 0.11.

Molecule `C/C=C/c1ccc([C@H]2[C@@H](CO)N(S(=O)(=O)CC)[C@H]2CN(C)C(=O)CC)cc1` had a viability index of 1.0222 ± 0.00032.

Molecule `COc1ccc(S(=O)(=O)Nc2ccc3c(c2)CC(=O)N([C@H](C)CO)C[C@H](C)[C@@H](CN(C)C(=O)Nc2c(C)noc2C)O3)cc1` came in with a viability index of 0.994 ± 0.086.

In the case of `COc1ccc2c3c([C@H](CO)N(Cc4ccccn4)C[C@]33CN(Cc4ccccn4)C3)n(C)c2c1`, the viability index worked out at 1.048 ± 0.0033.

As to `COc1ccc(S(=O)(=O)Nc2ccc3c(c2)C(=O)N([C@H](C)CO)C[C@@H](C)[C@@H](CN(C)Cc2ccc(C(F)(F)F)cc2)OCCCC[C@H](C)O3)cc1`, the viability index is 1 ± 0.11.

The molecule `CCCNC(=O)N1CC[C@@]2(CC1)CN([C@@H](CO)c1c2c2ccc(OC)cc2n1C)C(=O)CC1CC1` registered a viability index of 1.06 ± 0.074.

In turn, `COc1cccc(C(=O)Nc2ccc3c(c2)C(=O)N(C)[C@H]2CC[C@@H](CC(=O)N[C@H](C)c4ccccc4)O[C@H]2CO3)c1` displayed a viability index of 1.04 ± 0.077.

For `COc1ccc(S(=O)(=O)Nc2ccc3c(c2)C(=O)N([C@@H](C)CO)C[C@@H](C)[C@H](CN(C)Cc2ccc(C(F)(F)F)cc2)OCCCC[C@@H](C)O3)cc1`, the viability index turned out to be 0.974 ± 0.12.

Molecule `O=C(C[C@@H]1CC[C@@H]2[C@H](COC[C@@H](O)CN2C(=O)Nc2ccc(F)cc2)O1)NC1CCC1` showed a viability index of 1.07 ± 0.016.

Molecule `CCCNC(=O)N[C@H]1C=C[C@@H](CC(=O)N2CCN(C)CC2)O[C@H]1CO` showed a viability index of 0.945 ± 0.029.

The molecule `CN1C(=O)c2cc(NC(=O)CC(F)(F)F)ccc2OC[C@H]2O[C@@H](CC(=O)NC3CCC3)CC[C@@H]21` gave a viability index of 0.965 ± 0.098.

`CNC(=O)C[C@@H]1CC[C@@H]2[C@@H](COc3ccc(NS(=O)(=O)c4ccc(F)cc4)cc3C(=O)N2C)O1` had a viability index of 1.0217 ± 0.00016.

On to `CCC(=O)N1[C@H](CO)[C@H]2c3ccccc3N(C(=O)Nc3ccc(Cl)cc3)C[C@H]21`, for which the viability index was 1.04 ± 0.088.

`O=C(NC[C@@H]1[C@@H](c2ccccc2)[C@@H](CO)N1C(=O)C1CCC1)NC1CCCC1`: the viability index was 1.05 ± 0.054.

As to `O=C(NC1Cc2ccccc2C1)[C@@H]1N[C@@H]2c3cccc(=O)n3C[C@@H]2[C@H]1CO`, the viability index stood at 1.09 ± 0.11.

The molecule `COc1ccccc1CNC(=O)C[C@H]1C=C[C@H](NC(=O)CC2CC2)[C@H](CO)O1` registered a viability index of 1.02 ± 0.13.

As for `COc1cccc(NC(=O)N2CC(=O)N3[C@H](CO)[C@H](c4ccc(C#CCC5CCCC5)cc4)[C@H]3C2)c1`, the viability index was determined as 0.9813 ± 0.0041.

`Cc1cccc(S(=O)(=O)N[C@H]2CC[C@H](CCNC(=O)Nc3cc(F)ccc3F)O[C@@H]2CO)c1` gave a viability index of 1.14 ± 0.13.

`CN(C)C(=O)C[C@@H]1CC[C@H]2[C@@H](COC[C@H](O)CN2C(=O)C2CCOCC2)O1` registered a viability index of 1.08 ± 0.039.

`O=C(Cc1ccccc1)N1C[C@@H]2[C@H](c3ccccc31)[C@@H](CO)N2S(=O)(=O)c1ccccc1` had a viability index of 1.01 ± 0.043.

As to `C[C@H](NC(=O)[C@H]1[C@H](CO)[C@H]2Cn3c(ccc(-c4ccccc4F)c3=O)[C@@H]1N2)c1ccccc1`, the viability index was found to be 1.07 ± 0.055.

With `O=C(N[C@@H]1C=C[C@H](CC(=O)N2CCC(Cc3ccccc3)CC2)O[C@@H]1CO)c1cnccn1`, the viability index stood at 0.991 ± 0.1.

Consider `CS(=O)(=O)N1[C@@H](C#N)[C@@H](c2ccccc2-c2ccccc2F)[C@@H]1CO`, for which the viability index stood at 1.06 ± 0.14.

Consider `CCCC(=O)Nc1ccc2c(c1)OC[C@@H](C)N(S(=O)(=O)c1cn(C)cn1)C[C@H](C)[C@@H](OC)CN(C)C2=O`, for which the viability index turned out to be 1.07 ± 0.024.

As to `O=C(c1ccccn1)N1CC2(C1)[C@H](c1ccccc1)[C@H](CO)N2C(=O)C1CCCCC1`, the viability index came out at 1.1 ± 0.094.

`CCCNC(=O)N1[C@H](C#N)[C@@H](c2ccccc2-c2ccccc2F)[C@H]1CO` registered a viability index of 0.928 ± 0.022.

For the molecule `C[C@@H]1CCCCO[C@H](CN(C)C(=O)CCCN(C)C)[C@H](C)CN([C@@H](C)CO)C(=O)c2cc(NS(=O)(=O)c3ccc(Cl)cc3)ccc2O1`, the viability index came out at 1.06 ± 0.021.

On to `Cc1cc(C(=O)Nc2ccc3c(c2)C(=O)N(C)[C@H]2CC[C@H](CC(=O)NCc4ccc(-c5ccccc5)cc4)O[C@@H]2CO3)no1`, for which the viability index was determined as 1.13 ± 0.14.

`CN(C)CC(=O)N1[C@H](C#N)[C@@H](c2ccccc2-c2ccccc2F)[C@H]1CO` returned a viability index of 1.16 ± 0.031.

`Cc1ccc(S(=O)(=O)N(C)C[C@H]2Oc3cc(C#CC4CCCC4)ccc3S(=O)(=O)N([C@@H](C)CO)C[C@@H]2C)cc1` returned a viability index of 0.705 ± 0.12.

Regarding `COc1ccc(CN(C)C[C@H]2OCc3cnnn3CCCC(=O)N([C@H](C)CO)C[C@@H]2C)cc1`, the viability index came to 0.971 ± 0.023.

Molecule `CC(C)C#Cc1ccc([C@H]2[C@H]3CN(S(=O)(=O)c4ccccc4)CC(=O)N3[C@H]2CO)cc1` had a viability index of 1.06 ± 0.086.

Turning to `C[C@H]1CN([C@@H](C)CO)C(=O)CCCn2cc(nn2)CO[C@@H]1CN(C)C(=O)Nc1cccc(C(F)(F)F)c1`, the viability index worked out at 0.982 ± 0.018.
